Data reported in PubChem BioAssay (NCATS).
This is one part of the list. Shown are side measurements of this screen, not its main read-out; they come without a call. Compounds called inactive in the main read-out are mostly missing here.

Assay: qHTS Assay for Lipid Storage Modulators (AID 1519)
Details: Drosophila S3 cells, BODIPY lipid droplet/cell ratio, laser cytometry; measured here: lipid channel max response; cells loaded with oleic acid
Procedure, shortened: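 Cells seeded at 5,000 per well were treated with compounds over a concentration series and loaded with oleic acid (400 uM, as added). Lipid droplet fluorescence (488 nm excitation, 500-530 nm channel) was read by laser-scanning cytometry and normalized to 20 uM Triacsin C.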

SMILES | max response [%]
COc1ncc2nc(-c3cc(F)cc(F)c3)c(=O)n(Cc3cccs3)c2n1 | 14.1
COc1cc(C(=O)NCc2ccc(OCCN(C)C)cc2)cc(OC)c1OC | 31.5
c1ccc2cc(C3=NCCN3)ncc2c1 | 39.4
CCC(=O)N[C@@H]1CCc2cccc(OC)c2C1 | 77.1
Cc1cc(-c2ccccc2)nnc1NCCN1CCOCC1 | 47.4
C[C@H]1[C@H]2CC[C@H]3C4CC=C5C[C@@H](N(C)C)CC[C@]5(C)C4CC[C@]23CN1C (some centres undefined) | 34.8
NC(=O)NC(=O)Cc1ccccc1 | 42.9
N#CCCn1c(=O)c(-c2ccc(Cl)cc2)nc2cnc(N3CCNCC3)nc21 | 29.4
c1ccc(CNc2ccnc(-c3cccnc3)n2)cc1 | 37.8
CCNc1ncc2nc(-c3ccc(Cl)cc3)c(=O)n(-c3ccccc3)c2n1 | -8
N#CCCn1c(=O)c(-c2ccc(F)cc2)nc2cnc(N3CCNCC3)nc21 | 31.5
COc1ccc(-n2c(=O)cnc3cnc(Oc4cccc(Cl)c4)nc32)cc1 | 27.8
CN1CCN(c2ccnc(-c3cccnc3)n2)CC1 | 33.1
Cc1cccc(CNc2ncncc2-c2ccc(C(=O)N(C)C)cc2)c1 | 14.2
CC(C)=CCc1c(O)cc(O)c2c1O[C@H](c1ccccc1)CC2=O | 90.7
CN(C)c1ncc2nc(-c3cccc(C#N)c3)c(=O)n(C)c2n1 | 32
CCCCCCCC(=O)O[C@H](CC(=O)O)C[N+](C)(C)C | 39.3
Cc1ccccc1OCC(O)CO (centres undefined) | 31.6
COc1ccc(NC(=O)N2CCC3(CC2)CCN(C(=O)c2cccc(F)c2)CC3)cc1 | 37
CC(=O)NCCc1c[nH]c2ccc(O)cc12 | 22.6

SMILES | max response [%]
Nc1ccc(C(=O)NCC(=O)O)cc1 | 41.4
CCN(CC)CC(=O)Nc1c(C)cccc1C | 31.5
C=C1c2c(Cl)ccc(O)c2C(O)=C2C(=O)[C@]3(O)C(O)=C(C(N)=O)C(=O)C(N(C)C)C3C(O)C12 (some centres undefined) | 31.6
CO/N=C(/C(=O)N[C@H]1C(=O)N2C(C(=O)O)=C(COC(C)=O)CSC12)c1csc(N)n1 (some centres undefined) | 36.9
N#Cc1cccc(NC(=O)N2CC[C@@]3(CCCN(C(=O)c4cccc(F)c4)C3)C2)c1 | 31.9
O=C(Oc1ccccc1)N1CCC2(CC1)CN(c1ncccn1)C2 | 12.7
O=c1c(-c2ccccc2)nc2cncnc2n1-c1ccccc1 | 32.9
O=C1OCCN1/N=C/c1ccc([N+](=O)[O-])o1 | -54.6
O=C(c1cnccn1)N1CCC2(CC1)CCN(c1ccccc1)CC2 | 11.9
N#Cc1cccc(-c2nc3cnc(Nc4ccccc4)nc3n(C[C@H]3CCCO3)c2=O)c1 | -11.9
Cc1nc2cnc(Nc3ccccc3)nc2n(Cc2cccs2)c1=O | -1.57
COC(=O)N1CCC2(CCN(C(=O)Nc3cccc(F)c3)CC2)CC1 | 28.9
Nc1nc(/C(=C/CC(=O)O)C(=O)NC2C(=O)N3C(C(=O)O)=CCSC23)cs1 (centres undefined) | 40
CN1CCN(c2ncc3nc(-c4ccc(Cl)cc4)c(=O)n(C4CC4)c3n2)CC1 | 39.8
COc1ccc(C(=O)N2CCC[C@@]3(CCN(Cc4cc(C(F)(F)F)cc(C(F)(F)F)c4)C3)C2)cc1 | 22.9
CC(=O)OC1CC(OC(C)=O)[C@]2(C)C(CC(OC(C)=O)[C@@]3(C)C4=CC(=O)OC(c5ccoc5)[C@]4(C)CCC32)C1(C)C (some centres undefined) | -37.5
COc1ccc2c3c1OC1CC(O)C=C[C@@]31CCN(C)C2 (some centres undefined) | 36.4
CN(C)c1ncc2ncc(=O)n(CCc3ccccc3)c2n1 | 1.65
COc1ccc(NC(=O)N2CC[C@@]3(CCCN(C(=O)c4c(C)noc4C)C3)C2)cc1 | 41.7
